# Experimental data: PubChem BioAssay AID1468 (National Center for Advancing Translational Sciences (NCATS), 2008)
# Screen size: about 280,000 compounds; about 1,100 (0.39%) were called active. This list was built around the results that the source calls inconclusive (neither active nor inactive); the mix of calls is not that of the screen. The call rests on the fitted dose curve; in most records, active means well fitted inhibition curve with a large enough effect; inconclusive means small, poorly fitted or top-dose-only effect, or effect the other way; inactive means flat fitted curve, though single readings scatter. No potency is given beside an inconclusive call; the fits are too rough.
# Target: Microtubule-associated protein tau (Homo sapiens) (UniProt P10636)
# UniProt P10636, sequence (P10636 whole entry, looked up): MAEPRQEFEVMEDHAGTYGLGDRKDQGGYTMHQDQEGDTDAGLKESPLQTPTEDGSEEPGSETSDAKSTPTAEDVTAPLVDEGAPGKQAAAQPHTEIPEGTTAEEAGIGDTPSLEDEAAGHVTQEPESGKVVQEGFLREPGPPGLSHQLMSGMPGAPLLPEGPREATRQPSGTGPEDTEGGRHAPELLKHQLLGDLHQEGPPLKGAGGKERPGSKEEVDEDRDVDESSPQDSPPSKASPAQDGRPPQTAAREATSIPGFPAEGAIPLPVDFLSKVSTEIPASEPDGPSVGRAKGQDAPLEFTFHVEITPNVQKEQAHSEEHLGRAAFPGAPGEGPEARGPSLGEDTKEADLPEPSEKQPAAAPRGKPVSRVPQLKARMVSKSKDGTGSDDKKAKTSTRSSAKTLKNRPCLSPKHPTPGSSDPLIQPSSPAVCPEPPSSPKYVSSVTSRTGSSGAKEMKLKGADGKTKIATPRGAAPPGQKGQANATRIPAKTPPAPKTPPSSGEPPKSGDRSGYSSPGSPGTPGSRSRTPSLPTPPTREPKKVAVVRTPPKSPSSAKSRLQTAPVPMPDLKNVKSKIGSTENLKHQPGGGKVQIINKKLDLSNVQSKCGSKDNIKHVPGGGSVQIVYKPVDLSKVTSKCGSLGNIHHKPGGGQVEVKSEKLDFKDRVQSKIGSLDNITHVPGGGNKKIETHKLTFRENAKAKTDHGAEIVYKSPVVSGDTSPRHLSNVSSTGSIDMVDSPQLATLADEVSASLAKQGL
# Experiment: qHTS for Inhibitors of Tau Fibril Formation, Fluorescence Polarization; further: nearly all actives have a fitted effect of over 55% in size
# Conditions: K18 P301L tau heparin fibrillization, Alexa594 FP, 6 h; series mostly up to 57.7 µM; activity, negative = inhibition: at the top concentration
# How it was run: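 Quantitative HTS format: compounds meet 15 uM recombinant K18 P301L tau and Alexa 594-tau tracer in 100 mM sodium acetate pH 7; 20 uM heparin triggers fibrillization at 37 C over 6 hr; FP gives the signal.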
# On the % scale 0 is the no-effect control and ±100 the full control effect; potency means the concentration at half of the fitted maximal effect; tags describe the fitted curve by direction and shape.
Structure (SMILES),Potency,"activity, negative = inhibition"
O=C(NCCc1ccccc1Cl)c1ccc(Cn2c(=O)c3cccn3c3cccnc32)cc1,"inconclusive [inhibitor, full curve, poor fit]",
Clc1ccc(-c2csc(N/N=C/c3ccco3)n2)cc1,,inactive: -4.14%
COc1ccc2c(c1)Cc1sc(NC(=O)c3cccs3)nc1-2,"inconclusive [inhibitor, partial curve]",
COc1ccc(OC)c2sc(N3CCN(C(=O)C(C)(C)C)CC3)nc12,,inactive: 2.45%
CCOc1cc(CNc2ccc(O)cc2)ccc1OCc1ccc(Cl)cc1Cl,active: 22.4 µM,
Cc1ccc2[nH]c(-c3cccc(F)c3)cc(=O)c2c1,"inconclusive [inhibitor, full curve, poor fit]",
COc1ccc(Nc2ncc(C(=O)O)c3ccccc23)cc1,,inactive: 3.18%
COC(=O)c1sc(OC)cc1OCc1ccc(C)cc1,"inconclusive [activator, single point]",
CCc1ccc(-c2csc3[n+]2CCN3C(C)=O)cc1,"inconclusive [inhibitor, partial curve]",
O=C(Cn1c(=O)c2cccn2c2ccccc21)NCCc1ccccc1,active: 14.1 µM,
CCOC(=O)N1CCN(C(=O)Nc2ccccc2)CC1,"inconclusive [inhibitor, single point]",
Fc1ccc(-c2noc3ncnc(NCCc4ccccc4)c23)cc1,,inactive: -0.226%
COc1ccc2c(c1)c1c(c(=O)n(Cc3ccccc3)c(=O)n1CC(=O)NCc1ccccc1Cl)n2C,,inactive: -3.12%
CN(C)c1ccc(-c2nc3ccccc3c(=O)[nH]2)cc1,,inactive: 9.93%
CC(C)(C)c1cc(C(=O)Nc2ccc(F)cc2)n(Cc2ccc(F)cc2)n1,"inconclusive [inhibitor, single point]",
O=C(CSc1nnc2sc3ccccc3n12)c1ccco1,,inactive: 4.08%
COc1ccc(CCCc2nnc(SCC(=O)Nc3ccc(C)cc3)o2)cc1,"inconclusive [inhibitor, partial curve]",
O=C(CSCc1cccc(Br)c1)N=Nc1c(O)[nH]c2ccccc12,"inconclusive [inhibitor, single point]",
Cc1ccc(C(=O)Nc2ccc(NC(=O)c3cccs3)cc2)cc1C,,inactive: -10.5%
COc1cccc2sc(N(CCCN(C)C)C(=O)COc3ccc(Cl)cc3)nc12,"inconclusive [inhibitor, single point]",
CC(Nc1ccc(Cl)cc1)c1cc(Cl)ccc1O (centres undefined),,inactive: -11.1%
COC(=O)c1ccc(CSc2nc3c([nH]c4ccccc43)c(=O)n2-c2ccc(Cl)cc2)o1,"inconclusive [inhibitor, full curve, poor fit]",
COc1cccc(CSc2nc3cc(C(=O)NC4CCCC4)ccc3c(=O)n2Cc2ccccc2)c1,"inconclusive [inhibitor, single point]",

Structure (SMILES),Potency,"activity, negative = inhibition"
Clc1cccc(-c2ccc(/C=N/n3cnnc3)o2)c1Cl,,inactive: 10.7%
CN(C)c1ccc(NC(=O)CSc2nc(N)c(C(=O)Nc3ccc(N(C)C)cc3)s2)cc1,,inactive: 13%
OC(c1nnc(-c2ccccc2)o1)c1cccs1 (centres undefined),"inconclusive [inhibitor, partial curve, poor fit]",
CCOC(=O)CSc1nc(Cc2ccccc2)nc2ccccc12,"inconclusive [inhibitor, single point]",
CCc1cccc(NC(=O)Cn2c(=O)ccc3cc(S(=O)(=O)N4CCC(C)CC4)ccc32)c1,"inconclusive [inhibitor, partial curve, poor fit]",
S=C(NCc1ccco1)N1CCN(Cc2ccco2)CC1,,inactive: 5.47%
O=[N+]([O-])c1cccc(Cl)c1NCCNS(=O)(=O)c1ccccc1,"inconclusive [inhibitor, single point]",
O=C(c1ccc(S(=O)(=O)N2CCCC2)cc1)N1CCCCCC1,"inconclusive [inhibitor, single point]",
CC(C)(C)c1ccc(C2=NC(=O)C(CC(=O)O)S2)cc1 (centres undefined),"inconclusive [inhibitor, single point]",
Cc1ccc(S(=O)(=O)Nc2ccccc2-c2ccccc2NS(=O)(=O)c2ccc(C)cc2)cc1,,inactive: -0.566%
CN(CC(=O)Nc1ccc(N2CCOCC2)cc1)CC(=O)Nc1ccc(N2CCOCC2)cc1,,inactive: 12%
O=C(C/C=N\OCc1ccc([N+](=O)[O-])cc1)Nc1ccc(Br)cc1,"inconclusive [inhibitor, full curve, poor fit]",
CCOC(=O)C1=CN(c2cccc(F)c2)C=C(C(=O)OCC)C1c1cc(OC)c(O)c([N+](=O)[O-])c1,,inactive: 9.16%
CCN1C(=O)[C@H]2[C@H]3[C@H](O)[C@H](O)C/C(=N/O[C@@H]4O[C@@H](COC(C)=O)[C@@H](OC(C)=O)[C@@H](OC(C)=O)[C@H]4OC(C)=O)[C@@H]3CC[C@@H]2C1=O,,inactive: -2.22% [at 11.6 µM]
CCCCn1c2ccccc2c2nnc(SCC(=O)NC3=NN=C(c4ccccc4)CS3)nc21,"inconclusive [inhibitor, single point]",
O=C(COC(=O)C1CC2C=CC1C2)Nc1cccc(S(=O)(=O)N2CCCCCC2)c1 (centres undefined),"inconclusive [inhibitor, partial curve, poor fit]",
COc1ccc(N2CCN(C(=O)Cc3coc4cc(C)ccc34)CC2)cc1,,inactive: 5.74%
CCOc1ccc(NS(=O)(=O)c2ccc(-c3cc(C)no3)s2)cc1,"inconclusive [inhibitor, single point]",
COc1cccc(NC(=O)c2ccccc2-c2nc(-c3cccc(C)c3)no2)c1,"inconclusive [inhibitor, partial curve, poor fit]",
COC(=O)[C@@H]1C2CC3c4[nH]c5cc(OC)ccc5c4CCN3CC2C[C@H](OC(=O)c2cc(OC)c(OC)c(OC)c2)C1OC (some centres undefined),,inactive: 11.6%
CN1C=C/C(=C\c2cc[n+](C)c3ccccc23)c2ccccc21,"inconclusive [inhibitor, single point]",
COc1cccc(NC(=O)Cn2c(=O)n(-c3ccc(C)cc3)c(=O)c3ccc(C(=O)NCc4ccco4)cc32)c1,"inconclusive [inhibitor, full curve]",
Cc1c(C(=O)Nc2cccc(Cl)c2)oc2ccc(S(=O)(=O)N(C)C3CCCCC3)cc12,"inconclusive [inhibitor, single point]",

Structure (SMILES),Potency,"activity, negative = inhibition"
CCc1nc(NCc2ccc3c(c2)OCO3)c2oc3ccccc3c2n1,,inactive: -5.55%
CC(=O)Nc1cc(-c2ccc(Cl)cc2)nn1-c1ccccc1,"inconclusive [inhibitor, single point]",
O=C1CCSC2(C(=O)N(Cc3ccc(F)cc3)c3ccccc32)N1c1ccc(F)c(F)c1 (centres undefined),"inconclusive [inhibitor, single point]",
CCCCOC(=O)CSC1=C(C#N)C(c2cccnc2)C(C(=O)OCC)=C(c2ccccc2)N1 (centres undefined),"inconclusive [activator, partial curve, poor fit]",
Cc1ccccc1-n1nnnc1SCc1cc(=O)n2ccsc2n1,,inactive: -11%
C/C(=N/Nc1ccc([N+](=O)[O-])cc1)c1ccc(C)cc1C,"inconclusive [inhibitor, single point]",
O=C(Nc1ccccc1)OCc1cc(-c2ccccc2Cl)on1,"inconclusive [inhibitor, full curve, poor fit]",
Fc1cccc(-c2cc3nc(-c4ccccc4)cc(N4CCC5(CC4)OCCO5)n3n2)c1,"inconclusive [inhibitor, single point]",
CCOC(=O)CCSc1nc(-c2ccc3c(c2)OCO3)cc(C(F)(F)F)c1C#N,,inactive: 1.19%
Cc1ccc2cc(CN(CC3CCCO3)S(=O)(=O)c3ccccc3)c3nnnn3c2c1 (centres undefined),,inactive: 8.34%
O=S(=O)(NCC(c1cccnc1)N1CCN(c2ccccc2)CC1)c1cccs1 (centres undefined),,inactive: 2.08%
O=Cc1cn(-c2ccc(F)cc2)c2ccccc12,,inactive: -7.58%
COC(=O)CCN(c1ccccc1)S(=O)(=O)c1cc(-c2cc(C)no2)ccc1OC,,inactive: -1.91%
COc1ccc(Br)cc1C(=O)NC(=S)Nc1cc(-c2nc3ccccc3[nH]2)ccc1C,"inconclusive [inhibitor, single point]",
O=c1c(=Nc2ccccc2O)c(=O)c2ccccc12,"inconclusive [inhibitor, partial curve]",
COCCCNC(=O)c1oc2ccc(S(=O)(=O)N(C)C3CCCCC3)cc2c1C,"inconclusive [inhibitor, partial curve]",
Cc1nn(CC(=O)NCc2cccnc2)c(C)c1[N+](=O)[O-],"inconclusive [inhibitor, single point]",
CCCc1cc(C(N)=O)c(NC(=O)c2cc(C)on2)s1,"inconclusive [inhibitor, partial curve]",
COc1ccc(CNC(=O)c2cc3c(=O)oc4ccc(C)cc4c3s2)c(OC)c1,"inconclusive [inhibitor, full curve]",
COc1ccc(/C=N/Nc2nc3ccccc3[nH]2)c(OC)c1OC,,inactive: 13.3%
COc1cc(NC(=O)CSc2ncc(S(=O)(=O)c3ccc(Br)cc3)c(=O)[nH]2)cc(OC)c1,"inconclusive [activator, single point]",
COC(=O)c1ccc(COn2nnc3ccccc32)cc1,,inactive: -3.15%
Cn1c(=O)n(C/C=C/c2ccccc2)c(=O)c2c1nc1n2CCCN1Cc1ccccc1,"inconclusive [activator, partial curve]",
